# According to paper PMC12136788:
# Positions count from the first letter of the chain named. Some of the results follow.
# T1: UNK ZnF1-3 (human, UniProt Q9C0B0 31-174)
# T1 sequence: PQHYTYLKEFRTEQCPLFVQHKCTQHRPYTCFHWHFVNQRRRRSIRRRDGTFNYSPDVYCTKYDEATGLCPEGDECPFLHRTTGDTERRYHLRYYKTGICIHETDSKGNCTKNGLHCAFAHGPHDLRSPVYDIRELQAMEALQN
# B1: chr22:42032659:42032660:+_ENSG00000196419_ENST00000405878|hu_hu|motif|central (ssRNA)
# RNA: GGGAGUUCUACAGUCCGACGAUCGUCUUCAUUGGUGAACAGCAUGAUCCUCUUAUGACUCAUCUUGAAUUGGACAUCACGGAAGAGGUUGGCACAGACCCACAGCACUUCACUGAGUGAGUAGUCAGAUCCGUGGCCCAUCAUCAACAGAGGAUUGAGCAUCA
# B2: 92864098_92864218_87_5pUTR_ENSMUSG00000034826_ENSMUST00000038514|mouse|control|control (ssRNA)
# RNA: GGGAGUUCUACAGUCCGACGAUCCGCGGGAGCAGCACUUAGAUGGCCCCGGGCUCGCGCGGCGCGACGCCCAGUGCCCUCCGCUCUUCUGUCCGGCUGGGAACCGUCAGGCGGUCCGUACCAUUAGUUCCGCCUCCUUCCCGGCAACAGAGGAUUGAGCAUCA
# B3: chr5:56177553:56177554:+_ENSG00000095015_ENST00000399503|hu_hu|FALSE|FALSE (ssRNA)
# RNA: GGGAGUUCUACAGUCCGACGAUCAUCUGCAAUAGCCAUCAAACGGCGACGCAUCCUGGUGAAGUGAGUGGAACUGGAAACACUCAGCAUUUCUAACAGUUUUGAAAACACAUGGGGUACUGUAGUAACCAUUCUUGCAGAACUCAACAGAGGAUUGAGCAUCA
# B4: chr19:42259214:42259215:+_ENSMUSG00000018820_ENSMUST00000165783|mus_mus|motif|central (ssRNA)
# RNA: GGGAGUUCUACAGUCCGACGAUCGCUAUAGUGACUGCUGCAGACUCAGAGACACUAGGAAAGUUGCAAGUGUAUAUUUUCGGUCGGAAUUUCUAACUAAAAUUUGCCCUGUUUUAUUCACUGGCCCAAAGGAUUCUUUUUUAACAACAGAGGAUUGAGCAUCA
# B5: chr19:16212804:16212805:+_ENSG00000167460_ENST00000300933|hu_mus|hu_hu_hu_mus_False|88_98 (ssRNA)
# RNA: GGGAGUUCUACAGUCCGACGAUCAACAAUUCUGGAGAAGAACAUCACAUCAAGGAUGAACAGCAUUAAAGCUCAGUCAGAAGGCACAUGGGCAACAAUGAUCACCCCAGCAUUCUCGCUUGGAAUGCUUAAAGACAAUCUGUUCAACAGAGGAUUGAGCAUCA
# B6: chr2:103616161:103616162:-_ENSMUSG00000027184_ENSMUST00000111147|mus_mus|FALSE|FALSE (ssRNA)
# RNA: GGGAGUUCUACAGUCCGACGAUCCUCAUCCACUUGCUCCUUCUCACCACUGCUGAACUGUGUUUCUGCCAUGAACUGCCUAUUGACAUACUCUGUUGAUUCAACCUCACUUUGCUCUGUGUAUUCUUCCGCUGGCUCAGGUUCCAACAGAGGAUUGAGCAUCA
# B7: chr7:54825262:54825263:-_ENSG00000132432_ENST00000352861|hu_hu|hu_hu_hu_mus_False|38_88 (ssRNA)
# RNA: GGGAGUUCUACAGUCCGACGAUCCUGCCGGCUGGGCUCCACAAACUUUACCUGAUCAUCCAUGUUUGUUGGAUGGCGGAUUGAGAGCGUAGAGACAACGUAGCACUGAGAGAACCGAGCCCAACGGAACCGGAAGCUGGCAACCAACAGAGGAUUGAGCAUCA
# B8: chr8:104447970:104447971:+_ENSG00000164934_ENST00000297579|hu_hu|hu_hu_hu_mus_False|68_78 (ssRNA)
# RNA: GGGAGUUCUACAGUCCGACGAUCAUACACUUCCCUGCUUCGGCUCUUGUCCACAGGAAAGAUUCGAAUAGAUUUAUCAAAGCUGGCAGACACAAAUUCCUUCCCAGUGGGAGAGUAGUCCACAUCAAGUACUGCAGACACGUGCAACAGAGGAUUGAGCAUCA
# B9: chr1:156288723:156288724:-_ENSG00000163468_ENST00000295688|hu_mus|FALSE|FALSE (ssRNA)
# RNA: GGGAGUUCUACAGUCCGACGAUCUCCUUUCUUGUACUCCAAAGAAGAAUCCAAUAGCACAAUUCGAGGAUUCUUAAUAUAGCGGCGCAUCCUUGGAUGGGUCACAUCCUUGUUAAUCAUAACUCCACGUAAGACACAUGAGUCCAACAGAGGAUUGAGCAUCA
# B10: chr8:109707966:109707967:+_ENSMUSG00000031924_ENSMUST00000034400|mus_hu|FALSE|FALSE (ssRNA)
# RNA: GGGAGUUCUACAGUCCGACGAUCUACUUAAAAGAAAAAUGGAAAAAUAAAACUUUCAACACUAGACUGCCGCCCUGUUAAGAAUGUCUAAUAUGCAAUCAAAGUAUUGGAAAGCAGGCAUUUUUACCAAAGAGCAAUGUCACUCAACAGAGGAUUGAGCAUCA
# B11: chr15:40510687:40510688:+_ENSG00000156970_ENST00000287598|hu_hu|motif|central (ssRNA)
# RNA: GGGAGUUCUACAGUCCGACGAUCCCAGAAGGACCCAUCCCAGAAGACCUGUAGGUGUUCCUUGAACAAUAGUAAAUGUGCGGAAUCUGCUAUACCAAACAGGUCUACCUGGUAGGGAGAAGAACAGUUAGCCAGGAUCUUUUGCAACAGAGGAUUGAGCAUCA
# B12: 6284760_6284880_1203_3pUTR_ENSG00000116237_ENST00000343813|human|control|control (ssRNA)
# RNA: GGGAGUUCUACAGUCCGACGAUCUGGAGUGUUGCUGAGGACAGAGUCCAUCUCUCCCAGCGAGUCCUGGUUAUCCUUUACUUACACUCUGGCCUCGGGGGCAGUGGCGUGUGGCCUCGGUCCUCCCCAGGUAACUCUGGAGGGCAACAGAGGAUUGAGCAUCA
# B13: chr8:104447970:104447971:+_ENSG00000164934_ENST00000297579|hu_hu|hu_hu_hu_mus_False|8_58 (ssRNA)
# RNA: B8 RNA with G65U, U72C, A78G, G81A, G84A, U129C
# B14: chr1:114949673:114949674:-_ENSG00000197323_ENST00000358465|hu_mus|motif|central (ssRNA)
# RNA: GGGAGUUCUACAGUCCGACGAUCGCAUAUCUCUUCUUCAGUCCCAGGUUCCUGCUUGACCUUCACCUGAUCAGACUUGAAACGGUGAGCACUUUUCUCAGCAGUUCUUCCUGAUGAUCCGCAGCUGCCUCGACUGCCAGUACUCAACAGAGGAUUGAGCAUCA
# B15: chrX:140365796:140365797:-_ENSMUSG00000031285_ENSMUST00000033642|mus_mus|mus_mus_mus_hu_False|18_98 (ssRNA)
# RNA: GGGAGUUCUACAGUCCGACGAUCCUUCUCAUUACUCAAUGCCUGCAAGGUUCUGGUUCGGUAGAAGCUACAGUGGGCGCUGUGAGUGGGGCUAGGCAACCCAUUCAUCCGGGAGCCUCUCAUAUUUCUGGAUGUCUUAUCUCUCAACAGAGGAUUGAGCAUCA
# B16: chr19:3053611:3053612:-_ENSG00000104964_ENST00000327141|hu_hu|FALSE|FALSE (ssRNA)
# RNA: GGGAGUUCUACAGUCCGACGAUCCUCCCAUCUGACCCUCCAGGCCUUAGCUUGCCUCACAUGUCAGGGCAGGUAUCCACCUAACCAGGCUGCAGGGGAGGAGGAGGGAAGCCGGGAAUGGGGUAGGAAGAAAGCUAGAGGUGGCAACAGAGGAUUGAGCAUCA
# B17: chr19:38862671:38862672:-_ENSMUSG00000024999_ENSMUST00000025963|mus_mus|motif|central (ssRNA)
# RNA: GGGAGUUCUACAGUCCGACGAUCCAGAAAGUAUUUACAUACACAUUUUGUAUUUGUAAGUCAUUUCUACAAUGAUAAUAGCGGUUAUAUAAAAUAGUUCUUUAUAACUAUUUAUAAACAUAUACAGUUUUUAUCUGUAAGAAUCAACAGAGGAUUGAGCAUCA
# B18: chr1:58468927:58468928:-_ENSMUSG00000026034_ENSMUST00000148330|mus_mus|mus_mus_mus_hu_False|18_28 (ssRNA)
# RNA: GGGAGUUCUACAGUCCGACGAUCAAUUACUGAAAAAGAUGUUCAUUACCUUAGCUAUGUACUUAAUGAACCAAAUUACCCAAACAAAAUAAACAUGGCAAUAUAAAAAGCUAUACAAAAUAACUUACUGUACAAAAUAACUUACAACAGAGGAUUGAGCAUCA
# B19: chr16:13782116:13782117:+_ENSMUSG00000022682_ENSMUST00000023363|mus_hu|FALSE|FALSE (ssRNA)
# RNA: GGGAGUUCUACAGUCCGACGAUCGACUUCUGUCACAGUUCCACCAAACCGAACAGUUUUUCUUGGGGGAGAAUUGAAAAAGUCAUUCUCUAAUGCACGCAUAUUUGAAAUCCCAGUCCUCGACGCGCCCAGCUUCUUAACUGCCAACAGAGGAUUGAGCAUCA
# B20: chr11:87793471:87793472:-_ENSMUSG00000020483_ENSMUST00000020775|mus_mus|mus_mus_mus_hu_False|8_48 (ssRNA)
# RNA: GGGAGUUCUACAGUCCGACGAUCUGGACUUGAAAAUAAAAGAAUAAGCUGGAUCCCCCACCCCCCCACAUUGUCAACCCUACACGAGUUCUGAAUGGGCGACUCAUGAAAAUCAGCAGCUCAAACGAAUGACAACCCCCCACCCAACAGAGGAUUGAGCAUCA
# B21: 6498050_6498170_283_3pUTR_ENSMUSG00000033768_ENSMUST00000113458|mouse|control|control (ssRNA)
# RNA: GGGAGUUCUACAGUCCGACGAUCGGGUGAAGCGAAGGAAAACCAGAGCCCGAGCCUCAGUCCGGAGCCAAGCAAAUCAACUGGAUCCCGCCGGGGAAUCCGGGGUACGCGCAGCGGGAAGGCCAAGGUCCGUGAAGCCUGGAUCAACAGAGGAUUGAGCAUCA
# B22: chr9:114657494:114657495:+_ENSMUSG00000032434_ENSMUST00000035007|mus_mus|motif|central (ssRNA)
# RNA: GGGAGUUCUACAGUCCGACGAUCGAUUGUCUCAGGUAUUUUGUUAUAGAAACAGUCAGCAGACUAAUAGUUGGUAACACGGAAGUAGCUCAGAUUUGCUGUUAAUUCUCAAUAGGUCUAAAUGAUAUUUACAGCACAGCUUGACAACAGAGGAUUGAGCAUCA
# Biological target: T1, UNK ZnF1-3
# Test: nsRBNS (natural sequence RNA bind-n-seq); RBNS binding buffer (assumed for nsRBNS): 25 mM Tris pH 7.5, 150 mM KCl, 3 mM MgCl2, 0.01% Triton X-100, 500 ug/ml BSA, 20 U/ml SUPERase-In, 4 C; UNK is unkempt and MSI1 is Musashi-1; names of the RNAs are library labels; protein concentration not given here; high values mean tight binding
row,Binder,binding signal [enrichment R]
1,B1,1.32
2,B2,0.338
3,B3,1.01
4,B4,0.985
5,B5,1.27
6,B6,0.577
7,B7,1.02
8,B8,1.18
9,B9,0.571
10,B10,1.36
11,B11,0.4
12,B12,0.747
13,B13,0.929
14,B14,0.597
15,B15,0.876
16,B16,1.18
17,B17,0.292
18,B18,0.876
19,B19,0.74
20,B20,2.34
21,B21,1.35
22,B22,1.09
